# According to the supplement of paper PMC11417369:
# ± gives the standard deviation of the averaged measurements. The list shows a part of the results.
# Tested on: PfAP2-EXP AP2 domain (GST-tagged)
# Assay: gcPBM binding intensity (ln(normalized median fluorescence intensity)); higher = stronger DNA binding
# Method in brief: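 After 1 h on an Agilent 4 × 180k array of primer-extended double-stranded 36-bp intergenic genomic probes and negative controls, bound GST-tagged P. falciparum DNA-binding domains were detected with Alexa488 anti-GST antibody and scanned at 488 nm. The domains had been expressed in E. coli, and binding took place in 1× PBS with 1% milk, 0.2 mg/ml BSA, 0.5% salmon testes DNA and 0.03% Triton X-100. Binding intensity is the highest Masliner-normalised natural-log median intensity across replicate spots of either probe orientation.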
row,Sequence,gcPBM binding intensity (ln)
1,ACATATATATAAAGGTGTACACATATATATATATAT [XGTACX_site4779],10.2 ± 0.71
2,ATACTAAAGAAACACACACACATATATATATAGAAT [CACACA_site100],8.93 ± 0.49
3,TTTACACCCTAAAAATGTACAAGAAAGATTATATTA [XGTACX_site1102],8.36 ± 0.45
4,ATTTTTTTCCTAATGGTGCGAATAAATATCCATACC,8.88 ± 0.13
5,TTAACAGTAAAACACAGTACATATATACTTAAAACA [XGTACX_site1930],8.59 ± 0.35
6,AAAAAAAAAAAAGGAACACACAAGTAACAATAAATT [CACACA_site2481],8.83 ± 0.54
7,TTTTTTTATTATACTAGTACATATATATACAGCACA [XGTACX_site3464],8.73 ± 0.35
8,AAAGCTTACATATACACACATACATAAATTCATAAA [CACACA_site2469],8.42 ± 0.3
9,TTTTTAATAATCTCTCAAAATGTTCTTATATTTTAC [CACACA_negctrl_site1691],8.11 ± 0.26
10,TAATCTCATAAAACCGCACACACATAAAATTTGCAT [CACACA_site3890],8.69 ± 0.49
11,GAGAAATGGGGACACACACACATATTATAGATATAT [CACACA_site6829],8.83 ± 0.47
12,TAAGGATAAAATAAATGTACATATGTAAAATTATTA [XGTACX_site4170],8.48 ± 0.47
13,TTGTTTGATATCTTTGTCACGAAAAAAATATATATA [GTGCAC_negctrl_site54],8.47 ± 0.45
14,TATATATCTATATATTGTACATATGTTTGTATGTGT [XGTACX_site7420],8.54 ± 0.29
15,TATTTTTACCCATAAAGTACACATAAATATAAAATA [XGTACX_site177],8.66 ± 0.35
16,ATATAAATCATTGGTTGTACATATAATATTTTATAA [XGTACX_site925],8.41 ± 0.26
17,TAATATTTCTTATTTTATATTTGTATATGAATGGAT [XGTACX_negctrl_site278],8.43 ± 0.56
18,TGGTGATCAAAATATACATGCATATGTTCTGTTATT [TGCATGCA_site614],8.75 ± 0.27
19,GCTCAATGTTTTACATGTACATATATATATATATAT [XGTACX_site8210],10.2 ± 0.33
20,TATATATTAGAAGATAGTACATATATATTTATTAAT [XGTACX_site1011],8.53 ± 0.24
21,TATGATATCTATAATACACACATATACATAAGATCT [CACACA_site6652],8.45 ± 0.38
22,TTATATAAAACATTAACACACAAAGAAAAAAAATTA [CACACA_site1793],8.57 ± 0.47

row,Sequence,gcPBM binding intensity (ln)
1,TTAATATAACTTTTTGCACACTTAATTTTTTTTTTT [CACACA_site3364],8.74 ± 0.33
2,AAAACAAATGCTTAAAGTACTTATTATTTTTCTTTT [XGTACX_site6324],8.95 ± 0.45
3,TTCCTACTATTCAAACGTACAAAATATTTAAATAAT [XGTACX_site700],8.64 ± 0.38
4,TATTATAAAACATTATGTACATATTCTGAAAAATAG [XGTACX_site6577],8.46 ± 0.32
5,CAAAATAAAAAATTCACACACATATATATATATATA [CACACA_site2088],10.2 ± 0.38
6,TATTTCTTATTTATTTTTTAAGGAAATTAAAGATTT [CACACA_negctrl_site258],7.97 ± 0.47
7,CAAGTTCAAAATACAAGGAAGAAACAAAACTTGGCG [GTGCAC_negctrl_site600],9.12 ± 0.64
8,ATAATATAATATAAAACACACATATGTACCTTCTAA [CACACA_site2761],8.49 ± 0.28
9,TAAAAATATCTGTATACACACATATATATATATATA [CACACA_site6042],10.2 ± 0.42
10,AAAAAAAAAAAAAAAAGTACAAATCTTTATTTATTA [XGTACX_site3305],8.32 ± 0.014
11,TATATATTTTTTTCAAGTACACATTACAGTTACATA [XGTACX_site2713],8.62 ± 0.38
12,ATTCGATGTTTTAAATGTACACAAATTGAAGGAATA [XGTACX_site409],8.86 ± 0.31
13,ATGTTTTCTCTTTCGGTGCATTGTTTTCTATACTTT [GTGCAC_site9483],9.16 ± 0.49
14,TTTATATAATTTTAATGTACATATATATATATAAAT [XGTACX_site4381],8.43 ± 0.35
15,TTTTCTTACATGAGTGTACACACTTTTTTTCAGAAA [CACACA_site70],8.84 ± 0.28
16,TTATTTGAATAATGTTTGCACTTAGAGTATTTTATA,8.33 ± 0.37
17,ATATATCATAAATAAATGAAAATATTTTCTATGTGT [CACACA_negctrl_site689],8.63 ± 0.42
18,TATCTATAATATTATACACACATATATGCATAATAT [CACACA_site6175],8.74 ± 0.47
19,TTCTTCACATACACTTCAAAATTTGATAAAACATTA [CACACA_negctrl_site472],8.95 ± 0.42
20,TAATAAATAAGATTCACACATATTTAAATGTTATGC [CACACA_site5275],8.21 ± 0.33
21,GTATATAATTTTTTTTTTTTTTTCATTCTTTTCCTT [CACACA_negctrl_site1780],8.56 ± 0.42
22,AAATATATGAAATATACACACTTCTTTGGTATTATT [CACACA_site4414],8.38 ± 0.35

row,Sequence,gcPBM binding intensity (ln)
1,ATGAATTGACCATATTGTACATATTTAGGACTTACC [XGTACX_site8072],8.86 ± 0.42
2,TATATATTAAAACACACACACATATATATATATATA [CACACA_site3787],10 ± 0.38
3,AGAATATTTATATGATGTACTTATATATATATATAT [XGTACX_site3021],9.97 ± 0.47
4,CAGAAATATTAATGCTGTACGGAATACATATATTTT [XGTACX_site539],8.39 ± 0.34
5,ATTTTAATGGGACATGCATGGGACAAACTACAAATT [TGCATGCA_site853],9.3 ± 0.59
6,ATAATCCAAAAAAATCAAATAAAATAAAATAAAATA [CACACA_negctrl_site449],8.53 ± 0.37
7,TAAAAATATTTAAACTGTACTATTTTATGTTAAATG [XGTACX_site6620],8.3 ± 0.085
8,TTTTTTCTTTTCTTTTTATTTTATTTTGTTTTATTT [CACACA_negctrl_site799],8.48 ± 0.49
9,AATAAAAACTACATGTGTACATAATAAATACATATA [XGTACX_site755],8.76 ± 0.35
10,TGTTGCAAAACAAAAAAAAAAAAAAAAAATAATAAT [CACACA_negctrl_site1642],8.26 ± 0.52
11,TGAACCAGATTTAGAAGTACTAAATATTACATACAT [XGTACX_site2437],8.32 ± 0.3
12,TTATATTTTATATTTACACACATTTATATTTATAAA [CACACA_site203],8.38 ± 0.35
13,TATATAAATATTCGTAGTACAATACAATTATAAGTA [XGTACX_site3068],8.52 ± 0.48
14,TTTATAATTTTAAAATGTACAAGGAGGAAAAATTCT [XGTACX_site422],8.98 ± 0.45
15,ATTTAATAAAAAAAAAAAATATTGTAGAATATGATG [GTGCAC_negctrl_site195],8.26 ± 0.49
16,AATTTGTAAAATAAGGTGCGTATAAAAAATTATATT [GTGCAC_site9676],8.79 ± 0.16
17,ATAAACATCGGTAGTACACACATTCATGTACTTGAT [CACACA_site3037],8.6 ± 0.3
18,ATATACATATTCTTGTGTACATAAAAATTTATATAT [XGTACX_site8726],8.46 ± 0.25
19,CAAATGGTAAATGAAAGTACAAATTGTTTTGATTAA [XGTACX_site1536],8.44 ± 0.38
20,TTTGTTGACAGACACACACACATACATATATATATA [CACACA_site2288],9.8 ± 0.24
21,TATAATAATATAATGGTGCATGTATATAACCATATA,8.76 ± 0.014
22,TCTTACGGATTCATTGTGCACATATATATATATATA [GTGCAC_site9896],10.2 ± 0.45

row,Sequence,gcPBM binding intensity (ln)
1,TTAATAATTCTTAAAAGTACATAACTTTTTTTTTTT [XGTACX_site751],8.04 ± 0.45
2,GCTCTTTTGTTATGGTGTACCCTCCATGTAACATAA [XGTACX_site91],8.92 ± 0.24
3,AAATAAATATAAATAAATAAATAAATAAATATATAT [CACACA_negctrl_site827],8.39 ± 0.24
4,TTTTAAAAACGGCATGCATGTAATACATGGAAGGAA [TGCATGCA_site480],9.8 ± 0.3
5,TATATATAATTCATACATTTTAAATATATTTATTTA [CACACA_negctrl_site840],8.28 ± 0.43
6,TCTTTTATGCACATTGAGTAAACAACATATTTTTAA [TGCATGCA_negctrl_site561],8.86 ± 0.19
7,TTTAAAAAAATTCATGCACACGAAATAAAAAGCACC [CACACA_site8214],9.385 ± 0.035
8,TTTTTTATTAAAAGTAGTACACATGAAAAAAAAAAA [XGTACX_site5524],8.72 ± 0.37
9,TTAATATAGATATAACCACACACATACATCTAATTC [CACACA_site8519],8.65 ± 0.46
10,ATTTTTATAGAAATATGTACACAATATGTATATATT [XGTACX_site7993],8.16 ± 0.28
11,TAGAAGTACATATATGCATGTTAATTTTAAAGGAGG [TGCATGCA_site538],8.73 ± 0.35
12,ATATATATATAGTGTTGTACATTTAAAAATAATATA [XGTACX_site2627],9.87 ± 0.19
13,ATTAAAAATATTAGTTGTACTTTATATTTTCATATA [XGTACX_site3614],8.26 ± 0.35
14,AATCAAAATAATTTAACACACAATTTTAATACTGTT [CACACA_site2375],8.26 ± 0.35
15,TTTAAGAATTAACGGGGTACAATTCTTAAATATATA [XGTACX_site669],8.89 ± 0.42
16,AAATTCCATGAAAAAAGTACTAATTAATACAATATA [XGTACX_site2877],8.59 ± 0.38
17,ATGTGATAGAAGTACACACACATATGTATTTATAAT [CACACA_site5075],8.68 ± 0.49
18,TGTTTTATTTTTTTTGTGCACATACCTTTAGCATCA [GTGCAC_site9812],9.05 ± 0.38
19,TAATTATAATAAATATTCATATGTTCAAATATATAT [CACACA_negctrl_site151],8.09 ± 0.35
20,TATAAAATTATTAAACAAGAAAATTTTAGGTAATAC [TGCATGCA_negctrl_site568],8.56 ± 0.36
21,TTGATAAAACGTTATGCACACGTACGTGGGTATTTA [CACACA_site8445],8.79 ± 0.45
22,ATAATATATTTTTGAACACACAATATATATATATAT [CACACA_site4124],9.75 ± 0.27
